Measured values taken from the supplement of paper PMC8728848.
The other results are listed elsewhere or left out.

Experiments:
Test in all cases: glycan array binding signal (z-score within array); higher = stronger binding
Conditions in all cases: glycan notation: IUPAC condensed, linker removed
[1] = target: Neu5Ac(a2-3)Gal(b1-3)[Fuc(a1-4)]GlcNAc
How it was run: (§1)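 The binding signal is a Z-score computed within each array and averaged over linkers. Arrays of the same protein sequence at different concentrations or buffers were also averaged together. Data originate from 3228 arrays in the Consortium for Functional Glycomics database, kept only where the protein sequence was available.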

[2] = target: Neu5Ac(a2-3)Gal(b1-3)[Fuc(a1-4)]GlcNAc(b1-3)Gal(b1-3)[Fuc(a1-4)]GlcNAc
How it was run: as §1

[3] = target: Neu5Ac(a2-3)Gal(b1-3)[Fuc(a1-4)]GlcNAc(b1-3)Gal(b1-4)[Fuc(a1-3)]GlcNAc
How it was run: as §1

[4] = target: Neu5Ac(a2-3)Gal(b1-3)[GlcNAc(b1-6)]GalNAc
How it was run: as §1

[5] = target: Neu5Ac(a2-3)Gal(b1-3)[Neu5Ac(a2-6)]GalNAc
How it was run: as §1

[6] = target: Neu5Ac(a2-3)Gal(b1-3)[Neu5Ac(a2-6)]GlcNAc(b1-3)[Fuc(a1-3)[Gal(b1-4)]GlcNAc(b1-6)]Gal(b1-4)Glc
How it was run: as §1

[7] = target: Neu5Ac(a2-3)Gal(b1-3)]Neu5Ac(a2-3)Gal(b1-4)]GlcNAc
How it was run: as §1

Neu5Ac(a2-3)Gal(b1-4)Glc = target: Neu5Ac(a2-3)Gal(b1-4)Glc
How it was run: as §1

[8] = target: Neu5Ac(a2-3)Gal(b1-4)GlcNAc
How it was run: as §1

[9] = target: Neu5Ac(a2-3)Gal(b1-4)GlcNAc(b1-2)Man
How it was run: as §1

[10] = target: Neu5Ac(a2-3)Gal(b1-4)GlcNAc(b1-2)Man(a1-3)[GlcNAc(b1-4)][Neu5Ac(a2-3)Gal(b1-4)GlcNAc(b1-2)Man(a1-6)]Man(b1-4)GlcNAc(b1-4)GlcNAc
How it was run: as §1

[11] = target: Neu5Ac(a2-3)Gal(b1-4)GlcNAc(b1-2)Man(a1-3)[Neu5Ac(a2-3)Gal(b1-4)GlcNAc(b1-2)Man(a1-6)]Man(b1-4)GlcNAc(b1-4)GlcNAc
How it was run: as §1

[12] = target: Neu5Ac(a2-3)Gal(b1-4)GlcNAc(b1-2)Man(a1-3)[Neu5Ac(a2-3)Gal(b1-4)GlcNAc(b1-2)Man(a1-6)]Man(b1-4)GlcNAc(b1-4)[Fuc(a1-6)]GlcNAc
How it was run: as §1

[13] = target: Neu5Ac(a2-3)Gal(b1-4)GlcNAc(b1-2)Man(a1-3)[Neu5Ac(a2-6)Gal(b1-4)GlcNAc(b1-2)Man(a1-6)]Man(b1-4)GlcNAc(b1-4)GlcNAc
How it was run: as §1

[14] = target: Neu5Ac(a2-3)Gal(b1-4)GlcNAc(b1-2)[Neu5Ac(a2-3)Gal(b1-4)GlcNAc(b1-4)]Man(a1-3)[GlcNAc(b1-4)][Neu5Ac(a2-3)Gal(b1-4)GlcNAc(b1-2)[Neu5Ac(a2-3)Gal(b1-4)GlcNAc(b1-6)]Man(a1-6)]Man(b1-4)GlcNAc(b1-4)GlcNAc
How it was run: as §1

[15] = target: Neu5Ac(a2-3)Gal(b1-4)GlcNAc(b1-2)[Neu5Ac(a2-3)Gal(b1-4)GlcNAc(b1-4)]Man(a1-3)[GlcNAc(b1-4)][Neu5Ac(a2-3)Gal(b1-4)GlcNAc(b1-4)Man(a1-6)]Man(b1-4)GlcNAc(b1-4)GlcNAc
How it was run: as §1

[16] = target: Neu5Ac(a2-3)Gal(b1-4)GlcNAc(b1-2)[Neu5Ac(a2-3)Gal(b1-4)GlcNAc(b1-6)]Man(a1-6)[Neu5Ac(a2-3)Gal(b1-4)GlcNAc(b1-2)Man(a1-3)]Man(b1-4)GlcNAc(b1-4)GlcNAc
How it was run: as §1

[17] = target: Neu5Ac(a2-3)Gal(b1-4)GlcNAc(b1-2)[Neu5Ac(a2-3)Gal(b1-4)GlcNAc(b1-6)]Man(a1-6)[Neu5Ac(a2-3)Gal(b1-4)GlcNAc(b1-2)Man(a1-3)][GlcNAc(b1-4)]Man(b1-4)GlcNAc(b1-4)GlcNAc
How it was run: as §1

[18] = target: Neu5Ac(a2-3)Gal(b1-4)GlcNAc(b1-3)Gal
How it was run: as §1

[19] = target: Neu5Ac(a2-3)Gal(b1-4)GlcNAc(b1-3)Gal(b1-3)GlcNAc
How it was run: as §1

[20] = target: Neu5Ac(a2-3)Gal(b1-4)GlcNAc(b1-3)Gal(b1-4)GlcNAc
How it was run: as §1

[21] = target: Neu5Ac(a2-3)Gal(b1-4)GlcNAc(b1-3)Gal(b1-4)GlcNAc(b1-2)Man(a1-3)[Neu5Ac(a2-3)Gal(b1-4)GlcNAc(b1-3)Gal(b1-4)GlcNAc(b1-2)Man(a1-6)]Man(b1-4)GlcNAc(b1-4)GlcNAc
How it was run: as §1

[22] = target: Neu5Ac(a2-3)Gal(b1-4)GlcNAc(b1-3)Gal(b1-4)GlcNAc(b1-3)Gal(b1-4)GlcNAc
How it was run: as §1

[23] = target: Neu5Ac(a2-3)Gal(b1-4)GlcNAc(b1-3)Gal(b1-4)GlcNAc(b1-3)Gal(b1-4)GlcNAc(b1-2)Man(a1-3)[Neu5Ac(a2-3)Gal(b1-4)GlcNAc(b1-3)Gal(b1-4)GlcNAc(b1-3)Gal(b1-4)GlcNAc(b1-2)Man(a1-6)]GalNAc
How it was run: as §1

[24] = target: Neu5Ac(a2-3)Gal(b1-4)GlcNAc(b1-3)Gal(b1-4)GlcNAc(b1-3)GalNAc
How it was run: as §1

[25] = target: Neu5Ac(a2-3)Gal(b1-4)GlcNAc(b1-3)Gal(b1-4)GlcNAc(b1-3)[Neu5Ac(a2-3)Gal(b1-4)GlcNAc(b1-3)Gal(b1-4)GlcNAc(b1-6)]GalNAc
How it was run: as §1

[26] = target: Neu5Ac(a2-3)Gal(b1-4)GlcNAc(b1-3)Gal(b1-4)GlcNAc(b1-6)[Gal(b1-3)]GalNAc
How it was run: as §1

[27] = target: Neu5Ac(a2-3)Gal(b1-4)GlcNAc(b1-3)Gal(b1-4)[Fuc(a1-3)]GlcNAc
How it was run: as §1

[28] = target: Neu5Ac(a2-3)Gal(b1-4)GlcNAc(b1-3)GalNAc
How it was run: as §1

[29] = target: Neu5Ac(a2-3)Gal(b1-4)GlcNAc(b1-3)[Neu5Ac(a2-3)Gal(b1-4)GlcNAc(b1-6)]GalNAc
How it was run: as §1

[30] = target: Neu5Ac(a2-3)Gal(b1-4)GlcNAc(b1-6)GalNAc
How it was run: as §1

[31] = target: Neu5Ac(a2-3)Gal(b1-4)GlcNAc(b1-6)[Gal(b1-3)]GalNAc
How it was run: as §1

[32] = target: Neu5Ac(a2-3)Gal(b1-4)GlcNAc(b1-6)[Neu5Ac(a2-3)Gal(b1-3)]GalNAc
How it was run: as §1

[33] = target: Neu5Ac(a2-3)Gal(b1-4)GlcNAc6S
How it was run: as §1

[34] = target: Neu5Ac(a2-3)Gal(b1-4)[Fuc(a1-3)]GlcNAc
How it was run: as §1

[35] = target: Neu5Ac(a2-3)Gal(b1-4)[Fuc(a1-3)]GlcNAc(b1-2)Man
How it was run: as §1

[36] = target: Neu5Ac(a2-3)Gal(b1-4)[Fuc(a1-3)]GlcNAc(b1-3)Gal
How it was run: as §1

[37] = target: Neu5Ac(a2-3)Gal(b1-4)[Fuc(a1-3)]GlcNAc(b1-3)Gal(b1-4)GlcNAc
How it was run: as §1

[38] = target: Neu5Ac(a2-3)Gal(b1-4)[Fuc(a1-3)]GlcNAc(b1-3)Gal(b1-4)[Fuc(a1-3)]GlcNAc(b1-3)Gal(b1-4)[Fuc(a1-3)]GlcNAc
How it was run: as §1

[39] = target: Neu5Ac(a2-3)Gal(b1-4)[Fuc(a1-3)]GlcNAc(b1-3)GalNAc
How it was run: as §1

[40] = target: Neu5Ac(a2-3)Gal(b1-4)[Fuc(a1-3)]GlcNAc(b1-6)[Gal(b1-3)]GalNAc
How it was run: as §1

[41] = target: Neu5Ac(a2-3)Gal(b1-4)[Fuc(a1-3)]GlcNAc(b1-6)[Neu5Ac(a2-3)Gal(b1-3)]GalNAc
How it was run: as §1

[42] = target: Neu5Ac(a2-3)Gal(b1-4)[Fuc(a1-3)]GlcNAc6S
How it was run: as §1

[43] = target: Neu5Ac(a2-3)Gal6S(b1-4)GlcNAc
How it was run: as §1

[44] = target: Neu5Ac(a2-3)Gal6S(b1-4)[Fuc(a1-3)]GlcNAc
How it was run: as §1

B1: TIM1 (protein)
chain: ADGIQSVKVGGEAGPSVTLPCHYSGAVTSMCWNRGSCSLFTCQNGIVWTNGTHVTYRKDTRYKLLGDLSRRDVSLTIENTAVSDSGVYCCRVEHRGWFNDMKITVSLEIVPPHHHHHH
glycan array binding signal (z-score) [1]: -0.229
glycan array binding signal (z-score) [2]: -0.006
glycan array binding signal (z-score) [3]: -0.201
glycan array binding signal (z-score) [4]: -0.219
glycan array binding signal (z-score) [5]: -0.095
glycan array binding signal (z-score) [6]: -0.259
glycan array binding signal (z-score) [7]: -0.226
glycan array binding signal (z-score) (Neu5Ac(a2-3)Gal(b1-4)Glc): 0.916
glycan array binding signal (z-score) [8]: -0.262
glycan array binding signal (z-score) [9]: 0.197
glycan array binding signal (z-score) [10]: -0.169
glycan array binding signal (z-score) [11]: -0.26
glycan array binding signal (z-score) [12]: -0.132
glycan array binding signal (z-score) [13]: -0.252
glycan array binding signal (z-score) [14]: -0.288
glycan array binding signal (z-score) [15]: -0.276
glycan array binding signal (z-score) [16]: -0.172
glycan array binding signal (z-score) [17]: -0.272
glycan array binding signal (z-score) [18]: -0.298
glycan array binding signal (z-score) [19]: -0.249
glycan array binding signal (z-score) [20]: -0.192
glycan array binding signal (z-score) [21]: 1.02
glycan array binding signal (z-score) [22]: -0.238
glycan array binding signal (z-score) [23]: 4.84
glycan array binding signal (z-score) [24]: -0.303
glycan array binding signal (z-score) [25]: -0.113
glycan array binding signal (z-score) [26]: -0.117
glycan array binding signal (z-score) [27]: -0.257
glycan array binding signal (z-score) [28]: -0.232
glycan array binding signal (z-score) [29]: -0.117
glycan array binding signal (z-score) [30]: -0.189
glycan array binding signal (z-score) [31]: -0.071
glycan array binding signal (z-score) [32]: -0.294
glycan array binding signal (z-score) [33]: -0.181
glycan array binding signal (z-score) [34]: -0.079
glycan array binding signal (z-score) [35]: -0.204
glycan array binding signal (z-score) [36]: -0.217
glycan array binding signal (z-score) [37]: -0.095
glycan array binding signal (z-score) [38]: -0.102
glycan array binding signal (z-score) [39]: 0.198
glycan array binding signal (z-score) [40]: 0.854
glycan array binding signal (z-score) [41]: 0.165
glycan array binding signal (z-score) [42]: -0.205
glycan array binding signal (z-score) [43]: -0.241
glycan array binding signal (z-score) [44]: -0.189
